Sequences and labels used below:
B1: chr15:52122579:52122653:-|3pUTR|ENSG00000069966|msi1_unk|FALSE|overlapping (ssRNA)
RNA: GGGAGUUCUACAGUCCGACGAUCUCUUCACAUGUAAAUAGAUAUUACUUCUAGAGGAGCUUAGAGUUUAUUGCAGUGUAGCUUAGGGGAGCAACCCAUGGCUCACAGGUCACUAAGCGUCUCCAAUAUGACUAUUAAAACUGUCAACAGAGGAUUGAGCAUCA
B2: ENSG00000070961:be:win_1901|CDS|ENSG00000070961|bound_else_gene|NA|bound_elsewhere_windowed (ssRNA)
RNA: GGGAGUUCUACAGUCCGACGAUCAAACUGUGAUUGAACCGAUGGCAUCAGAAGGCUUGAGAACCAUAUGUCUUGCAUUCAGAGAUUUUCCAGCAGGAGAACCAGAACCAGAGUGGGAUAAUGAAAAUGAUAUUGUCACCGGCCCAACAGAGGAUUGAGCAUCA
B3: chrX:101412715:101412817:+|CDS|ENSG00000126945|unk|FALSE|unique (ssRNA)
RNA: GGGAGUUCUACAGUCCGACGAUCGGGUAUGGAGGCUAUGAUGACUAUGGUGGCUAUAAUGAUGGAUAUGGCUUUGGGUCUGAUAGAUUUGGAAGAGACCUCAAUUACUGUUUUUCAGGAAUGUCUGAUCAUAGAUACGGAGAUCAACAGAGGAUUGAGCAUCA
B4: chr7:73831540:73831641:+|CDS|ENSG00000189143|msi1|FALSE|unique (ssRNA)
RNA: GGGAGUUCUACAGUCCGACGAUCCAAGGCCAAGACCAUGAUCGUGGCGGGCGUGGUGUUCCUGUUGGCCGGCCUUAUGGUGAUAGUGCCGGUGUCCUGGACGGCCCACAACAUCAUCCAAGACUUCUACAAUCCGCUGGUGGCCAACAGAGGAUUGAGCAUCA
B5: chr10:95611293:95611394:-|CDS|ENSG00000059573|msi1|total|mutant (ssRNA)
RNA: GGGAGUUCUACAGUCCGACGAUCCCCCUCCGAAGUGAAGUCACUCCGAACUGAGUAUGGGGACCUGGAAUUAUGCAUUGAAGCCGUGGACAACGUUCAGGAUGCCAUUGACCACAUCCACAAGUAUGGCAGCUCCCACACGGACAACAGAGGAUUGAGCAUCA
B6: chr12:81257974:81259660:-|three_prime_utr|ENSG00000139220|control|control|control (ssRNA)
RNA: GGGAGUUCUACAGUCCGACGAUCAUGACUUAUUAAAAGCUGAAAAAUGUGAUUUUUGGGGGGAGUCAGAUAUUACAUUUGAUUAGUUUACUACAAAUUGUAAUAAAAUGCUUAAGUCAUUUGAAUAAUAAACAUCAUCUACAUCAACAGAGGAUUGAGCAUCA
B7: chr12:56162362:56162467:-|3pUTR|ENSG00000139613|unk|total|mutant (ssRNA)
RNA: GGGAGUUCUACAGUCCGACGAUCGGUUCCUCCCACCAGGCCCUUUGUUCCUCAUGUCCCCAUGUUUCUCUCCCUCUGCGUCUCCGCACCUUUCUUCUGUUCAAAGUUUUCUGUAAAUUUUCUCUUUUUUUCUUUCUUUCUUUUCAACAGAGGAUUGAGCAUCA
B8: chr1:217137657:217137758:-|5pUTR|ENSG00000196482|msi1|FALSE|unique (ssRNA)
RNA: GGGAGUUCUACAGUCCGACGAUCCGGGCUCCAGGCCGGGCUCCCUAAACGGGUCAGCAAUUGGAGCGGGAAGGCCGGACAGGUAGGUGGCGUGGGGCGCACAAGCCCGGCAGCGAUAACCGGGGACGUCUGUACUGCUUCCAACAACAGAGGAUUGAGCAUCA
B9: chr16:58599380:58599482:-|5pUTR|ENSG00000125107|unk|total|mutant (ssRNA)
RNA: GGGAGUUCUACAGUCCGACGAUCCAGAACAGAGUAAGACCCCUGGUAAAGAAGAACUGAAGAUAUUAUACAGAUACCAGAUACCGCCUAAUUACAAAGAAAGCAUUAACCUGCCUCUGAGGUGACUAAAGGGGAAUAAUGGUGCAACAGAGGAUUGAGCAUCA
B10: chr10:7163078:7163179:-|3pUTR|ENSG00000198879|unk|FALSE|unique (ssRNA)
RNA: GGGAGUUCUACAGUCCGACGAUCAGAGGUGCCUUUUAGGAAUACGGGGAGUGAAGGAAGGCCGGCAGGCAUCUCCAUGCAACUAGAUGGUUUGUUUGUUUGUUUGUUUGUUUGUUGUUCAUUUUGUUGUGUUUUUUGAGACAGCAACAGAGGAUUGAGCAUCA
B11: chr13:45969211:45969312:-|CDS|ENSG00000123200|unk|total|mutant (ssRNA)
RNA: GGGAGUUCUACAGUCCGACGAUCGUCCCUGACCGUACAGAGGUGACAGAAGCAGAGCAUACUGCCACCGCCACGACUCCUGGCCGUACCCCUUCUCCUCUAUCUUCUCUUCUUCCUCCUCCACCGCCUGUGGCUACUGCCACUCAACAGAGGAUUGAGCAUCA
B12: ENSG00000198589:be:win_5151|CDS|ENSG00000198589|bound_else_gene|NA|bound_elsewhere_windowed (ssRNA)
RNA: GGGAGUUCUACAGUCCGACGAUCGCAGUUCAGAUCUUUUGACAGAAGUGUCAUUGUUGCAGCAAAAAAGUCAGCAGUCUCACCUUCCACCUUUAAUACAAGCAUACCUACCAAUGCUGUCAGUGUGGUUUCCUCAGUAGAUUCCAACAGAGGAUUGAGCAUCA
B13: chr5:10236899:10237040:-|CDS|ENSG00000150756|control|control|control (ssRNA)
RNA: GGGAGUUCUACAGUCCGACGAUCUAUUAUUACUUGUUCACAAAACCAUCCUCCCAGACACUUUCAUUUCACUGCUGCUGUGCUAGCCCACUGAUGGAGAGAUGCAGUGGAUUUUCAGCAAUGUUUUGUUCGACCUCCCCGGGGCAACAGAGGAUUGAGCAUCA
B14: chr3:45823315:45826332:-|three_prime_utr|ENSG00000163818|control|control|control (ssRNA)
RNA: GGGAGUUCUACAGUCCGACGAUCUCAGGCAUGUAUUUUGAAAAGCAUUUUGUCAUAUCCCCUCUCCUUAUUUUUCUAAUAUUUAGACUUUGAAUAUUUAGAACUAGAGUUCCUAUUUUCAGCUAGUUGAAAACAGAGAAAACCCAACAGAGGAUUGAGCAUCA

Binding signal data for 14 molecules are collected here from paper PMC12136788.

Some of the results follow.

The target in this test is MSI1 full-length (mouse, UniProt Q61474 1-362). Put plainly: nsRBNS (natural sequence RNA bind-n-seq); RBNS binding buffer (assumed for nsRBNS): 25 mM Tris pH 7.5, 150 mM KCl, 3 mM MgCl2, 0.01% Triton X-100, 500 ug/ml BSA, 20 U/ml SUPERase-In, 4 C; UNK is unkempt and MSI1 is Musashi-1; names of the RNAs are library labels; protein concentration not given here; high values mean tight binding.
Chain of UniProt Q61474 (Q61474 whole entry): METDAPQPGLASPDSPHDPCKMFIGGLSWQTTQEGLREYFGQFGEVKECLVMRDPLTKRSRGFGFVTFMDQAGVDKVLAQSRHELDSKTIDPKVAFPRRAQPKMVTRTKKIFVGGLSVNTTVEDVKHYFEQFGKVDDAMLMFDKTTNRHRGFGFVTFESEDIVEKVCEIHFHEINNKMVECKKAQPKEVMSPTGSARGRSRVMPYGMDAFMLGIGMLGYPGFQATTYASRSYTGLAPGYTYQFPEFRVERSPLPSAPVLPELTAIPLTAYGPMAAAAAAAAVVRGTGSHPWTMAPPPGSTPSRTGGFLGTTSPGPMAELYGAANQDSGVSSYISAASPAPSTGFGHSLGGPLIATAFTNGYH
As for B1, the binding signal was found to be 1.29 enrichment R.

In the case of B2, the binding signal turned out to be 0.318 enrichment R.

For B3, the binding signal worked out at 0.771 enrichment R.

In the case of B4, the binding signal turned out to be 0.372 enrichment R.

For the molecule B5, the binding signal is 0.291 enrichment R.

Regarding B6, the binding signal turned out to be 0.9 enrichment R.

As to B7, the binding signal was 1.14 enrichment R.

As to B8, the binding signal stood at 0.526 enrichment R.

With B9, the binding signal worked out at 0.791 enrichment R.

In the case of B10, the binding signal came to 2.59 enrichment R.

The molecule B11 showed a binding signal of 0.983 enrichment R.

As for B12, the binding signal was found to be 0.49 enrichment R.

With B13, the binding signal turned out to be 0.919 enrichment R.

With B14, the binding signal was determined as 5.79 enrichment R.
